# Reference: publication PMC6919601, “Identification of Plasmodium dipeptidyl aminopeptidase allosteric inhibitors by high throughput screening” (PLoS ONE, 2019)
# About 230 (0.21%) of roughly 110,000 compounds showed an effect of 50% or more. This is one part of the list.
# Target: DPAP1 (Plasmodium falciparum, UniProt Q8IIJ9)
# Test: primary screen, percent inhibition; read by cleavage of a fluorogenic dipeptide substrate; higher = more effect of the substance
# Parameters: species or system P. falciparum D10 trophozoite lysates; single well
# 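Also: 30 min substrate incubation versus DMSO and 10 µM JCP410 controls.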
# Chain of DPAP1 (Q8IIJ9 whole entry, looked up): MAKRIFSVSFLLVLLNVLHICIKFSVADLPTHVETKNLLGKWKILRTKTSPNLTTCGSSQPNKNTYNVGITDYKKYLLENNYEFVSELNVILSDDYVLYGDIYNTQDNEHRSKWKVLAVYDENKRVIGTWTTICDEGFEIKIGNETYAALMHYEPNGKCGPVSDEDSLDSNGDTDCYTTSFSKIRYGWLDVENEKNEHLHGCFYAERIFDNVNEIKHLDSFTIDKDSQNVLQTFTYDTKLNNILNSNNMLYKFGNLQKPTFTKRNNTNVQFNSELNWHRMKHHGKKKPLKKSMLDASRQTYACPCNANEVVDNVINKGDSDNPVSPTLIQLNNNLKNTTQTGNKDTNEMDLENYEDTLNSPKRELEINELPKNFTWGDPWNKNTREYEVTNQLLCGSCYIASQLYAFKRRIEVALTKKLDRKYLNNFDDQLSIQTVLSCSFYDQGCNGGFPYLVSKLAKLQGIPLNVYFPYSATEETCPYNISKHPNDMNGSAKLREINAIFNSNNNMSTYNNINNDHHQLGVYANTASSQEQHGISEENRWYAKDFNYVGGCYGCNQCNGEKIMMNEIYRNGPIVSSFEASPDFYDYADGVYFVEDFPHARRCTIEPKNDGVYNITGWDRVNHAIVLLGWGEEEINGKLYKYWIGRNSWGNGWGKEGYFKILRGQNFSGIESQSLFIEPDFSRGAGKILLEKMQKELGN
row,SMILES,% Inhibition @ 10 uM
1,Clc1ccc(-c2ncnn2-c2ccc(Br)nc2)c(Cl)c1,5%
2,COCCCNC(=O)C1Sc2nnc(-c3ccccc3)n2NC1c1ccccc1 (stereo not shown),1.72%
3,Cc1ccc(N2CCN(c3ccc(C)cc3)C(CC(=O)O)C2=O)cc1 (stereo not shown),-3.52%
4,Cc1ccc(C(CC(=O)N2CCC3(CC2)OCCO3)N2Cc3ccccc3C2=O)cc1 (stereo not shown),0.796%
5,Oc1ncnc(O)c1C(c1ccc(Cl)cc1)c1c(O)ncnc1O,-7.58%
6,Cc1[nH]nc2c1C1(C(=O)Nc3ccc(Br)cc31)C(C#N)=C(N)O2 (stereo not shown),4.08%
7,CC1CCCCN1C1CCN(CCc2ccccc2)CC1 (stereo not shown),-0.603%
8,CCOc1cc(C2NCCc3cc(OC)c(OC)cc32)ccc1O (stereo not shown),-1.79%
9,Cc1sc(C2C(C#N)=C(N)OC3=C2C(=O)CCC3)cc1COc1ccc(F)cc1Cl (stereo not shown),0.385%
10,Cn1c(=O)c2nc(NCc3ccco3)[nH]c2n(C)c1=O,-2.98%
11,COc1ccc(OC)c(CCNC(=O)COCc2cc(-c3ccc(F)cc3)on2)c1,-3.25%
12,OC1(c2ccc(Cl)cc2)CCN(Cc2ccc(F)cc2F)CC1,-0.0648%
13,CN(C)CCN(C(=O)CCS(=O)(=O)c1ccccc1)c1nc2ccc(Cl)cc2s1,0.693%
14,O=S(=O)(c1cc(Br)c(Br)s1)N1CCN(Cc2ccccc2)CC1,-4.16%
15,Cc1cc(=O)n2nc(N(C)CC(=O)NC3CCCc4ccccc43)sc2n1 (stereo not shown),1.38%
16,CCc1ccc2nc(N3CCC(C(=O)NC4CC4)CC3)sc2c1,-7.29%
17,CCC(CO)NC(=O)c1ccc(-c2nn(C)c(=O)c3ccccc23)cc1 (stereo not shown),-3.23%
18,CC(C)N(Cc1ccccc1)S(=O)(=O)c1ccc(CCN2C(=O)c3cccnc3C2=O)cc1,-0.571%
19,O=c1c2ccccc2ncn1Cc1ccc(Cl)cc1,0.121%
20,COc1ccc(N2C(=O)/C(=C\c3c(OC)ccc4ccccc34)C(=O)NC2=S)cc1,2.65%
21,COc1ccccc1OC(C)C(=O)Nc1noc2ccccc12 (stereo not shown),-2.85%
22,O=c1nc(-c2ccccc2)sc2ccccc12,-2.35%
23,O=C(O)CCCN1CNC(=S)NC1,-15.6%
24,COc1ccc(Cl)cc1C(=O)Nc1nc2c(s1)C(=O)CC(C)(C)C2,4.64%
25,Cc1ccc(C(C)NC(=O)Cc2ccccc2)cc1 (stereo not shown),-1.5%

row,SMILES,% Inhibition @ 10 uM
1,CCOc1c(CNCCCSc2nnnn2C)cccc1OC,-1.11%
2,CCOc1cc(C2CC(=O)NC(SCC(N)=O)=C2C#N)ccc1O (stereo not shown),5.05%
3,CCCc1ccc(OCc2ccc(C(=O)Nc3cccc(C)n3)o2)c(OC)c1,0.413%
4,CCOc1cc(C2c3c(oc4ccc(F)cc4c3=O)C(=O)N2CCc2ccc(OC)cc2)ccc1O (stereo not shown),-5.38%
5,CCn1cc(C(=O)NCc2ccc(C)o2)c2cc(OC)c(OC)cc2c1=O,2.73%
6,Cc1ccc(-c2cc(C(=O)N3N=C(C(F)F)CC3(O)C(F)F)c3ccccc3n2)o1 (stereo not shown),-1.88%
7,Cn1c(NC(=O)c2cc(-c3cccc(Br)c3)nc3ccccc23)cc(=O)n(C)c1=O,-0.883%
8,COC(=O)CCC(=O)Nc1ccc([N+](=O)[O-])cc1,-6.52%
9,COc1cccc(CN2CCN(Cc3ccccc3)CC2)c1OC,0.605%
10,COC(=O)C1=CN(C(C)C)C=C(C(=O)OC)C1c1ccc(OC)cc1,-3.23%
11,CC1CC(C)CN(CC(O)COC2CC(C)CC(C)(C)C2)C1 (stereo not shown),-4.56%
12,Cn1c(=O)c(C(=O)Nc2ccccc2)c(O)c2ccccc21,-1.96%
13,Cc1ccc(/C=c2/sc3nc(/C=C/c4ccc(Cl)cc4)nn3c2=O)o1,10.7%
14,COc1ccc(-c2cc3nc(C)c(CCC(=O)Nc4cccc(C)n4)c(C)n3n2)c(OC)c1,-2.25%
15,CC(C)Oc1ccc(C2=CC(=O)NC2=O)cc1,-2.55%
16,COc1cc(C2Nc3ccc4ncccc4c3C3=C2C(=O)CC(C)(C)C3)cc(OC)c1O (stereo not shown),-1.44%
17,COc1cc2c(cc1OC)C1(CCCCC1)CNC2CCc1ccccc1 (stereo not shown),4.22%
18,COc1cc(C2C=C(Nc3ccccc3)C(=O)N2c2ccccc2)ccc1O (stereo not shown),1.64%
19,CC1CCCCN1CCNC(=O)c1cnn2ccccc12 (stereo not shown),-8.42%
20,CCCc1nnc(NC(=O)C(CC)Sc2nnnn2-c2ccccc2)s1 (stereo not shown),0.484%
21,Cc1nnc2sc(-c3cccnc3)nn12,0.635%
22,COc1ccc2c(c1)c(C(C)=O)c(C)n2-c1cccc2ccccc12,1.39%
23,Cc1nn(CC(=O)NCCCOC(C)C)c(=O)c2nn(-c3ccccc3)c(C)c12,7.67%
24,CCN(Cc1ccccc1)S(=O)(=O)c1cc(Cl)ccc1Cl,-3.44%
25,COc1cccc(C(=O)Nc2ccc(NC(=O)c3ccc(C)cc3)cc2)c1,-3.66%

row,SMILES,% Inhibition @ 10 uM
1,Cc1ccc(-c2cc(-c3ccccc3)c(C#N)c(SCC(N)=O)n2)cc1,-2.89%
2,CCOc1ccc(-c2csc(-c3cc4ccccc4oc3=O)n2)cc1,2.24%
3,COc1cccc(CNc2nc3ccccc3c3nncn23)c1,1.49%
4,COc1ccccc1NC(=O)c1sc2nc3c(cc2c1N)CCCCC3,1.92%
5,Cc1cc(/C=C\c2ccccc2)c(C#N)c(S)n1,33.7%
6,CC(=O)C12CCCCC1CC1C3CC(C)[C@@]4(O)CC(=O)CCC4(C)C3CCC12C (stereo partly shown),2.58%
7,COC(=O)Nc1nc2ccccc2n1Cc1ccc(F)cc1,-3.04%
8,CC1CCN(S(=O)(=O)c2ccc(NC(=O)c3ccccc3Br)cc2)CC1,-1.17%
9,O=C(C1CC(c2ccccc2F)=NO1)N1CCCCC1 (stereo not shown),2.85%
10,CCC(=O)NC1CCC(CC2CCC(NC(=O)CC)CC2)CC1 (stereo not shown),-7.08%
11,O=C(NCCc1ccccc1)C1CCN(C(=O)c2cnn(-c3ccccc3)c2-n2cccc2)CC1,3.4%
12,O=C(CSc1nc[nH]n1)Nc1ncccn1,6.51%
13,CCCCCCCc1c(C)nn(-c2nnc3c(n2)[nH]c2ccccc23)c1O,-2.42%
14,CC(C)N(CCC#N)S(=O)(=O)c1cccc2nsnc12,-1.69%
15,CC(NC(=O)c1ccccc1)c1ccc2c(c1)OCCCO2 (stereo not shown),3.8%
16,CCOC(=O)N1CCC(NCc2ccc(Cl)c(Cl)c2)CC1,1.57%
17,CCOC(=O)c1oc2cc(O)c(CC)cc2c(=O)c1-c1ccc2c(c1)OCCO2,-1.11%
18,O=c1cc(COc2cc(Cl)ccc2Cl)nc2scc(-c3ccccc3)n12,-8.66%
19,COc1cccc(CNC(=O)c2nnn(-c3ccc(OC(F)(F)F)cc3)c2N)c1,5.12%
20,Cc1ccccc1N1CC(C(=O)NC(C)C)CC1=O (stereo not shown),10%
21,O=C(NCC1CCCO1)c1cc(-c2ccncc2)nc2ccccc12 (stereo not shown),-6.16%
22,CNc1ccc(Cl)cc1C(NC(N)=O)c1ccccc1 (stereo not shown),-5.16%
23,CCc1ccc(OCC(=O)Nc2ccc(Cl)cn2)cc1,0.512%
24,NS(=O)(=O)c1ccc(CCNC(=O)Cn2c(SCc3ccc(F)cc3)nc3cccnc32)cc1,7.46%
25,COc1cccc(C2C=C(c3ccc(C)cc3)Nc3nnnn32)c1OC (stereo not shown),0.0842%

row,SMILES,% Inhibition @ 10 uM
1,Cc1cccc(C(=O)NC2(C(F)(F)F)C(=O)Nc3c2c(=O)[nH]c(=O)n3-c2ccc(F)cc2)c1 (stereo not shown),2.76%
2,CCCc1ccc(OCc2ccc(C(=O)O)cc2)c(OC)c1,3.47%
3,O=Cc1c(C(=O)O)n(Cc2ccc(F)cc2Cl)c2ccccc12,3.24%
4,CC(=O)N1N=C(c2ccccc2)OC1(C)c1ccc(Br)cc1 (stereo not shown),-4.73%
5,CC(C)(C)C(=O)Nc1ccc(C(=O)Nc2cccc(C(=O)O)c2)cc1,-6.29%
6,CCOc1ccc(CCNCc2c(C(=O)O)n(Cc3ccccc3F)c3cc(OC)ccc23)cc1,4.14%
7,Cc1nn(CC(=O)NCCCN2CCCC2=O)c(=O)c2nn(-c3ccccc3)c(C)c12,-2.12%
8,N=C1/C(=C\c2ccc(OCc3cccc4ccccc34)cc2)C(=O)N=C2SC(N3CCOCC3)=NN12,-3.44%
9,CCCCN(C)C(=O)c1oc2ccc(S(=O)(=O)N3CCCCCC3)cc2c1C,4.36%
10,CCOc1cc(C2C3=C(CCCC3=O)OC3=C2C(=O)CCC3)ccc1O,-17.2%
11,Cc1nnc(SCC(=O)Nc2ncc3c(n2)CCCC3=O)s1,0.032%
12,COc1ccc(C2=NOC(C(=O)N3CCN(C(=O)c4ccco4)CC3)C2)cc1 (stereo not shown),4.74%
13,COCCNC(=O)c1cc(-c2ccc(C)c(C)c2)nc2ccccc12,1.57%
14,Cc1ccc(C)c(C2C(C#N)=C(N)OC3=C2C(=O)CC(C)(C)C3)c1 (stereo not shown),5.66%
15,CN(Cc1ccccc1)c1c2c(nc3nncn13)CCC2,-2.57%
16,Cc1ccc(-n2ncc3c(O)nc(SCC(=O)NC4CCCCC4)nc32)cc1C,-5.22%
17,CCOc1ccc(C2c3c(oc4cc(C)c(C)cc4c3=O)C(=O)N2c2nccs2)cc1OC (stereo not shown),2.1%
18,COc1ccc(N(CC(O)CN2CCCCC2)S(=O)(=O)c2ccccc2)cc1 (stereo not shown),-3.09%
19,CCSc1nnc(-c2ccccc2)n1N,-3.63%
20,O=C(O)CCCC(=O)Nc1ccc(Cl)cc1Cl,0.505%
21,Cc1ccccc1OCC(=O)Nc1ccc(CN2CCCCC2)cc1,-1.59%
22,Cc1ccc2c(c1)-c1onc(C(=O)NCc3ccccc3Cl)c1CO2,0.589%
23,COc1cc(C)c(CN2CCCN(C)CC2)cc1C,-2.08%
24,COc1ccc(-c2cc(C(=O)NCC3CCCO3)c3cc(C(C)C)ccc3n2)cc1 (stereo not shown),1.16%
25,CC1(C)CC(=O)C2=C(C1)N(CC1CCCO1)C(=O)NC2(C(F)(F)F)C(F)(F)F (stereo not shown),-3.33%
